According to PMC3477299 (ACS chemical biology, 2012):

Biological target: Human Hsp70 (HSPA1A), as used in the ELISA-like assays (human, UniProt P0DMV8)
Experiment: ELISA

Sequence of UniProt P0DMV8 (P0DMV8 whole entry): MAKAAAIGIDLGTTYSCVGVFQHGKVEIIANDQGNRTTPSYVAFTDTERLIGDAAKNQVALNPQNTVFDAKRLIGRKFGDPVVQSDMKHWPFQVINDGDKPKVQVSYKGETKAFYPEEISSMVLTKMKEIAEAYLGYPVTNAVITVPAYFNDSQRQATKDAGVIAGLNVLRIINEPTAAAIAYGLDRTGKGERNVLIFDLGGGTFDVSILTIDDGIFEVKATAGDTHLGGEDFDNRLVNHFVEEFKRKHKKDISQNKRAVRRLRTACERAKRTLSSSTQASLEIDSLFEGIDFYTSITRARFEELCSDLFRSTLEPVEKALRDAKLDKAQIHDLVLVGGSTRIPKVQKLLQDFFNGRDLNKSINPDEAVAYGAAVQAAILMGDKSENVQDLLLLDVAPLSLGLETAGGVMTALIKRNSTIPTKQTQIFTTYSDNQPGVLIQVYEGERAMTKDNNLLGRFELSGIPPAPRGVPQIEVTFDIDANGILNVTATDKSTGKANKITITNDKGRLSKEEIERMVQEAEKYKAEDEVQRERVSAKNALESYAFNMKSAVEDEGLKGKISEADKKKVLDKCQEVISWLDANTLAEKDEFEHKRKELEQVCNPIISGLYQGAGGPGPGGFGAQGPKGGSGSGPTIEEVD

B1: N-terminal His-tagged Human 4RON tau (natural protein)
chain: not shown
- Kd: 2.9 ± 0.2 µM
